# Experimental data from the supplement of paper PMC10369915.
# The list shows a part of the results. Rule as the data show it: active = 3.2 or more and inactive = the rest. Most of these values are background signal.
# B1: ASL_Y376_YF (peptide)
# chain: TDLAFYLVRKG
# B2: ASL_Y375 (peptide)
# chain: ATDLAYYLVRK
# B3: ASPA_Y64_R63T (peptide)
# chain: KKCTTYIDCDL
# B4: ARID1B_Y483_P488R (peptide)
# chain: DMGAQYAAASR
# B5: ARFGEF3_Y2029 (peptide)
# chain: KLMTEYKKRKQ
# B6: ARSB_Y165_YF (peptide)
# chain: RGFDTYFGFLL
# B7: ARID1B_Y1091 (peptide)
# chain: DLFRLYVCVKE
# B8: ARPC1B_Y35 (peptide)
# chain: HEVHIYEKSGA
# B9: ASL_Y375_K380E_YF (peptide)
# chain: ATDLAYFLVRE
# B10: ARPC1B_Y35_K37N (peptide)
# chain: HEVHIYENSGA
# B11: ASPA_Y64_L69R (peptide)
# chain: KKCTRYIDCDR
# B12: ARFGEF3_Y2029_K2031R (peptide)
# chain: KLMTEYKRRKQ
# B13: ASL_Y376_R379C (peptide)
# chain: TDLAYYLVCKG
# B14: ARMC9_Y107 (peptide)
# chain: IHFAIYLLKYS
# B15: ARAP2_Y380_K384N (peptide)
# chain: IKSSIYDNRNE
# B16: ASS1_Y113_G117C (peptide)
# chain: REGAKYVSHCA
# B17: ARVCF_Y901_R906Q (peptide)
# chain: LGPDGYSTVDQ
# B18: ARFGEF1_Y314 (peptide)
# chain: KNEVLYDGENH
# Target: SHP2 C-SH2 domain E139D
# Test: enrichment score (SH2-bound / input frequency) (ratio); bacterial display of known human phosphotyrosine sites (pTyr-Var adds point mutants) read by sequencing; higher = stronger binding; tyrosines were phosphorylated by kinases first
# Settings: peptide library: pTyr-Var
# 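Also: displayed peptides selected on beads carrying the immobilized SH2 domain, with library peptides lacking any tyrosine serving as negative controls.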
row,Binder,enrichment score
1,B1,inactive: 0.869
2,B2,inactive: 0.701
3,B3,inactive: 0.781
4,B4,inactive: 0.455
5,B5,inactive: 1.48
6,B6,inactive: 1.15
7,B7,inactive: 0.642
8,B8,inactive: 1.04
9,B9,inactive: 1.05
10,B10,inactive: 3.08
11,B11,inactive: 0.852
12,B12,inactive: 0.241
13,B13,inactive: 0.619
14,B14,inactive: 1.6
15,B15,inactive: 0.551
16,B16,inactive: 0.588
17,B17,inactive: 0.45
18,B18,inactive: 0.525

# Target: SHP2 C-SH2 domain wild-type
# Test: as above
# Settings: peptide library: pTyr-Var
row,Binder,enrichment score
1,B1,inactive: 0.652
2,B2,inactive: 0.704
3,B3,inactive: 1.1
4,B4,inactive: 0.462
5,B5,inactive: 1.11
6,B6,inactive: 1.46
7,B7,inactive: 0.978
8,B8,inactive: 1.13
9,B9,inactive: 0.952
10,B10,active: 3.65
11,B11,inactive: 1.05
12,B12,inactive: 0.18
13,B13,inactive: 1.01
14,B14,inactive: 1.73
15,B15,inactive: 0.513
16,B16,inactive: 0.973
17,B17,inactive: 0.676
18,B18,inactive: 0.448

# Target: SHP2 N-SH2 domain L43F
# Test: as above
# Settings: peptide library: pTyr-Var
row,Binder,enrichment score
1,B1,inactive: 0.974
2,B2,inactive: 0.848
3,B3,inactive: 0.965
4,B4,inactive: 0.476
5,B5,inactive: 1.18
6,B6,inactive: 1.05
7,B7,inactive: 0.817
8,B8,inactive: 0.91
9,B9,inactive: 1.15
10,B10,active: 3.49
11,B11,inactive: 0.945
12,B12,inactive: 0.313
13,B13,inactive: 0.818
14,B14,inactive: 1.44
15,B15,inactive: 0.743
16,B16,inactive: 0.965
17,B17,inactive: 0.922
18,B18,inactive: 0.505

# Target: SHP2 N-SH2 domain T42A
# Test: as above
# Settings: peptide library: pTyr-Var
row,Binder,enrichment score
1,B1,inactive: 0.786
2,B2,inactive: 0.612
3,B3,inactive: 1.02
4,B4,inactive: 0.362
5,B5,inactive: 1.07
6,B6,inactive: 1.13
7,B7,inactive: 0.632
8,B8,inactive: 0.652
9,B9,inactive: 0.998
10,B10,active: 3.25
11,B11,inactive: 0.776
12,B12,inactive: 0.193
13,B13,inactive: 0.678
14,B14,inactive: 1.32
15,B15,inactive: 0.551
16,B16,inactive: 0.688
17,B17,inactive: 1.68
18,B18,inactive: 0.406

# Target: SHP2 N-SH2 domain T52S
# Test: as above
# Settings: peptide library: pTyr-Var
row,Binder,enrichment score
1,B1,inactive: 0.735
2,B2,inactive: 0.841
3,B3,inactive: 0.974
4,B4,inactive: 0.485
5,B5,inactive: 1.32
6,B6,inactive: 1.02
7,B7,inactive: 0.68
8,B8,inactive: 0.909
9,B9,inactive: 0.88
10,B10,active: 3.51
11,B11,inactive: 1.04
12,B12,inactive: 0.316
13,B13,inactive: 0.324
14,B14,inactive: 1.86
15,B15,inactive: 0.713
16,B16,inactive: 0.579
17,B17,inactive: 0.821
18,B18,inactive: 0.476

# Target: SHP2 N-SH2 domain wild-type
# Test: as above
# Settings: peptide library: pTyr-Var
row,Binder,enrichment score
1,B1,inactive: 0.765
2,B2,inactive: 0.617
3,B3,inactive: 0.988
4,B4,inactive: 0.505
5,B5,inactive: 0.943
6,B6,inactive: 1.2
7,B7,inactive: 1.19
8,B8,inactive: 1.24
9,B9,inactive: 0.991
10,B10,inactive: 2.9
11,B11,inactive: 0.818
12,B12,inactive: 0.17
13,B13,inactive: 0.994
14,B14,inactive: 1.57
15,B15,inactive: 0.778
16,B16,inactive: 0.923
17,B17,inactive: 0.57
18,B18,inactive: 0.468
